Some of the results follow.
Assays:
Assay in all cases: glycan array binding signal (z-score within array); higher = stronger binding
Conditions in all cases: glycan notation: IUPAC condensed, linker removed
[1] = target: Fuc(a1-2)[GalNAc(b1-3)]Gal
Method in brief: (§1)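 The Consortium for Functional Glycomics database supplied 3228 glycan arrays, of which those lacking an available protein sequence were dropped. The binding signal, a within-array Z-score, was averaged across arrays of the same protein sequence and across linkers. Negative scores can be read as non-binding.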

Fuc(a1-3)GlcNAc = target: Fuc(a1-3)GlcNAc
Method in brief: as §1

[2] = target: Fuc(a1-3)[Gal(b1-4)]Glc6S
Method in brief: as §1

[3] = target: Fuc(a1-3)[Gal(b1-4)]GlcNAc
Method in brief: as §1

[4] = target: Fuc(a1-3)[Gal(b1-4)]GlcNAc(b1-2)Man
Method in brief: as §1

[5] = target: Fuc(a1-3)[Gal(b1-4)]GlcNAc(b1-2)Man(a1-3)[Fuc(a1-3)[Gal(b1-4)]GlcNAc(b1-2)Man(a1-6)]Man(b1-4)GlcNAc(b1-4)GlcNAc
Method in brief: as §1

[6] = target: Fuc(a1-3)[Gal(b1-4)]GlcNAc(b1-2)Man(a1-3)[Fuc(a1-3)[Gal(b1-4)]GlcNAc(b1-2)Man(a1-6)]Man(b1-4)GlcNAc(b1-4)[Fuc(a1-6)]GlcNAc
Method in brief: as §1

[7] = target: Fuc(a1-3)[Gal(b1-4)]GlcNAc(b1-3)Gal(b1-3)[Fuc(a1-4)]GlcNAc
Method in brief: as §1

[8] = target: Fuc(a1-3)[Gal(b1-4)]GlcNAc(b1-3)Gal(b1-4)[Fuc(a1-3)]GlcNAc
Method in brief: as §1

[9] = target: Fuc(a1-3)[Gal(b1-4)]GlcNAc(b1-3)Gal(b1-4)[Fuc(a1-3)]GlcNAc(b1-3)Gal(b1-4)[Fuc(a1-3)]GlcNAc
Method in brief: as §1

[10] = target: Fuc(a1-3)[Gal(b1-4)]GlcNAc(b1-3)GalNAc
Method in brief: as §1

[11] = target: Fuc(a1-3)[Gal(b1-4)]GlcNAc(b1-6)GalNAc
Method in brief: as §1

[12] = target: Fuc(a1-3)[Gal(b1-4)]GlcNAc(b1-6)[Gal(b1-3)GlcNAc(b1-3)]Gal(b1-4)Glc
Method in brief: as §1

[13] = target: Fuc(a1-3)[Gal(b1-4)]GlcNAc6S
Method in brief: as §1

[14] = target: Fuc(a1-3)[Gal3S(b1-4)]Glc
Method in brief: as §1

[15] = target: Fuc(a1-3)[Gal3S(b1-4)]GlcNAc
Method in brief: as §1

[16] = target: Fuc(a1-3)[Gal3S(b1-4)]GlcNAc6S
Method in brief: as §1

[17] = target: Fuc(a1-3)[GalNAc(b1-4)]GlcNAc
Method in brief: as §1

[18] = target: Fuc(a1-3)[GalNAc(b1-4)]GlcNAc6S
Method in brief: as §1

Fuc(a1-4)GlcNAc = target: Fuc(a1-4)GlcNAc
Method in brief: as §1

Fuc(b1-3)GlcNAc = target: Fuc(b1-3)GlcNAc
Method in brief: as §1

Gal(a1-2)Gal = target: Gal(a1-2)Gal
Method in brief: as §1

Gal(a1-3)Gal = target: Gal(a1-3)Gal
Method in brief: as §1

Gal(a1-3)Gal(b1-3)GlcNAc = target: Gal(a1-3)Gal(b1-3)GlcNAc
Method in brief: as §1

[19] = target: Gal(a1-3)Gal(b1-3)GlcNAc(b1-2)Man
Method in brief: as §1

[20] = target: Gal(a1-3)Gal(b1-3)GlcNAc(b1-2)Man(a1-3)[Gal(a1-3)Gal(b1-3)GlcNAc(b1-2)Man(a1-6)]Man(b1-4)GlcNAc(b1-4)GlcNAc
Method in brief: as §1

[21] = target: Gal(a1-3)Gal(b1-3)GlcNAc(b1-3)GalNAc
Method in brief: as §1

[22] = target: Gal(a1-3)Gal(b1-3)GlcNAc(b1-6)GalNAc
Method in brief: as §1

[23] = target: Gal(a1-3)Gal(b1-3)[Fuc(a1-4)]GlcNAc(b1-2)Man(a1-3)[Gal(a1-3)Gal(b1-3)[Fuc(a1-4)]GlcNAc(b1-2)Man(a1-6)]Man(b1-4)GlcNAc(b1-4)GlcNAc
Method in brief: as §1

Gal(a1-3)Gal(b1-4)Glc = target: Gal(a1-3)Gal(b1-4)Glc
Method in brief: as §1

B1: Epa23 (Candida glabrata) (protein)
chain: MGSSHHHHHHSSGLVPRGSHMIPNPFEGTINNFPSGCSPNHGLYNRGLTMELYNYSYIHPQSIQSYFNTSTLKKMEKGQCWDPSYLDVNYPRTGYKTHNRFAKVNGIDGILDFEFNPTRSCVPSKGQLPQNYNYPLQFTLSNFTMLLYGYFKPKVTAKHTFTIFADDLLFLNFGAGNAFDCCQQQDTIDDFGNYQAYALWGSDTQQNTLTVNLDANIYYPIRMFYNNRDFKGALNMYFTTDESNTKINDFSGYLFNIPDSSEGCPAHISYETECGNVSG
- glycan array binding signal (z-score) [1]: -0.23
- glycan array binding signal (z-score) (Fuc(a1-3)GlcNAc): -0.214
- glycan array binding signal (z-score) [2]: -0.144
- glycan array binding signal (z-score) [3]: -0.11
- glycan array binding signal (z-score) [4]: -0.223
- glycan array binding signal (z-score) [5]: -0.1
- glycan array binding signal (z-score) [6]: -0.205
- glycan array binding signal (z-score) [7]: -0.249
- glycan array binding signal (z-score) [8]: -0.183
- glycan array binding signal (z-score) [9]: -0.177
- glycan array binding signal (z-score) [10]: -0.211
- glycan array binding signal (z-score) [11]: -0.174
- glycan array binding signal (z-score) [12]: -0.258
- glycan array binding signal (z-score) [13]: -0.074
- glycan array binding signal (z-score) [14]: -0.161
- glycan array binding signal (z-score) [15]: -0.262
- glycan array binding signal (z-score) [16]: -0.161
- glycan array binding signal (z-score) [17]: -0.199
- glycan array binding signal (z-score) [18]: -0.268
- glycan array binding signal (z-score) (Fuc(a1-4)GlcNAc): -0.188
- glycan array binding signal (z-score) (Fuc(b1-3)GlcNAc): -0.185
- glycan array binding signal (z-score) (Gal(a1-2)Gal): -0.213
- glycan array binding signal (z-score) (Gal(a1-3)Gal): 0.097
- glycan array binding signal (z-score) (Gal(a1-3)Gal(b1-3)GlcNAc): 0.064
- glycan array binding signal (z-score) [19]: 0.017
- glycan array binding signal (z-score) [20]: -0.178
- glycan array binding signal (z-score) [21]: -0.061
- glycan array binding signal (z-score) [22]: -0.077
- glycan array binding signal (z-score) [23]: -0.161
- glycan array binding signal (z-score) (Gal(a1-3)Gal(b1-4)Glc): -0.178

— the supplement of paper PMC8728848
